This is one part of the list. Repeats are few or missing, and single values can be far off.
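Also: cells treated in 1,536-well plates, then fixed and DAPI-stained, with nuclei counted from automated high-throughput microscope images.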

The test system of the test is A375. The test can be described thus: cell count relative to DMSO control; melanoma cells; higher = more viable cells. Conditions: library dose: standard library concentration; 72 h.
In the case of `CC(=O)c1c(C)c2cnc(Nc3ccc(N4CCNCC4)cn3)nc2n(C2CCCC2)c1=O` [palbociclib] + Cc1nc(Nc2ncc(C(=O)Nc3c(C)cccc3Cl)s2)cc(N2CCN(CCO)CC2)n1 [dasatanib] (first compound 0.2 µM, partner dose 0.02 µM), the cell count was 67.5%.

Compound `Nc1ccn([C@@H]2O[C@H](CO)[C@@H](O)C2(F)F)c(=O)n1` [gemcitabine] + Cc1nc(Nc2ncc(C(=O)Nc3c(C)cccc3Cl)s2)cc(N2CCN(CCO)CC2)n1 [dasatanib] (first compound 0.002 µM, partner dose 0.02 µM) had a cell count of 66.8%.

For `CO[C@H]1C[C@@H]2CC[C@@H](C)[C@@](O)(O2)C(=O)C(=O)N2CCCC[C@H]2C(=O)O[C@H]([C@H](C)C[C@@H]2CC[C@@H](OCCO)[C@H](OC)C2)CC(=O)[C@H](C)/C=C(\C)[C@@H](O)[C@@H](OC)C(=O)[C@H](C)C[C@H](C)/C=C/C=C/C=C/1C` [everolimus] + Cn1cncc1[C@@](N)(c1ccc(Cl)cc1)c1ccc2c(c1)c(-c1cccc(Cl)c1)cc(=O)n2C [tipifarnib] (first compound 0.1 µM, partner dose 0.05 µM), the cell count turned out to be 94.8%.

`CC(=O)c1c(C)c2cnc(Nc3ccc(N4CCNCC4)cn3)nc2n(C2CCCC2)c1=O` [palbociclib] + NCC(=O)Nc1ccc(-n2nc(C(F)(F)F)cc2-c2ccc3c(ccc4ccccc43)c2)cc1 [OSU03012] (first compound 0.2 µM, partner dose 5 µM) displayed a cell count of 52.1%.

For the compound `Nc1ccn([C@@H]2O[C@H](CO)[C@@H](O)C2(F)F)c(=O)n1` [gemcitabine] + C[C@]1(c2nc3c(C(N)=O)cccc3[nH]2)CCCN1 [Veliparib] (first compound 0.002 µM, partner dose 7 µM), the cell count amounted to 78.3%.

Regarding `Nc1ccn([C@@H]2O[C@H](CO)[C@@H](O)C2(F)F)c(=O)n1` [gemcitabine] + COCC[n+]1c2c(n(Cc3cnccn3)c1C)C(=O)c1ccccc1C2=O [YM155] (first compound 0.002 µM, partner dose 0.002 µM), the cell count is 87.3%.

As to `Nc1nc(F)nc2c1ncn2[C@@H]1O[C@H](CO)[C@@H](O)[C@@H]1O` [fludarabine] + Cn1c(Nc2ccc(C(F)(F)F)cc2)nc2cc(Oc3ccnc(-c4ncc(C(F)(F)F)[nH]4)c3)ccc21 [CHIR265] (first compound 1 µM, partner dose 0.4 µM), the cell count was determined as 24.7%.

With `Nc1nc(F)nc2c1ncn2[C@@H]1O[C@H](CO)[C@@H](O)[C@@H]1O` [fludarabine] + O=C(Nc1cccc(Cl)c1)Nc1ncc(CCNc2ncnc3ccsc23)s1 [SNS314] (first compound 1 µM, partner dose 0.004 µM), the cell count is 37%.

The compound `CC(=O)c1c(C)c2cnc(Nc3ccc(N4CCNCC4)cn3)nc2n(C2CCCC2)c1=O` [palbociclib] + COCC[n+]1c2c(n(Cc3cnccn3)c1C)C(=O)c1ccccc1C2=O [YM155] (first compound 0.2 µM, partner dose 0.002 µM) displayed a cell count of 69.3%.

For the compound `Nc1nc(F)nc2c1ncn2[C@@H]1O[C@H](CO)[C@@H](O)[C@@H]1O` [fludarabine] + Cn1nnc2c(C(N)=O)ncn2c1=O [temozolomide] (first compound 1 µM, partner dose 10 µM), the cell count is 33%.

As for `CC(=O)c1c(C)c2cnc(Nc3ccc(N4CCNCC4)cn3)nc2n(C2CCCC2)c1=O` [palbociclib] + Cc1ccc(NC(=O)c2cccc(N(C)C)c2)cc1NC(=O)c1ccc(O)cc1 [ZM336372] (first compound 0.2 µM, partner dose 10 µM), the cell count came to 77.5%.

The compound `Nc1ncn([C@H]2C[C@H](O)[C@@H](CO)O2)c(=O)n1` [decitabine] + C[C@@H]1CCN(C(=O)CC#N)C[C@@H]1N(C)c1ncnc2[nH]ccc12 [CP690550] (first compound 0.5 µM, partner dose 5 µM) had a cell count of 115%.

For the compound `Nc1ncn([C@H]2C[C@H](O)[C@@H](CO)O2)c(=O)n1` [decitabine] + Clc1ccc(Nc2nnc(Cc3ccncc3)c3ccccc23)cc1 [vatalanib] (first compound 0.5 µM, partner dose 10 µM), the cell count was determined as 90.3%.

Compound `Nc1nc(F)nc2c1ncn2[C@@H]1O[C@H](CO)[C@@H](O)[C@@H]1O` [fludarabine] + Nc1ncn([C@H]2C[C@H](O)[C@@H](CO)O2)c(=O)n1 [decitabine] (first compound 1 µM, partner dose 0.5 µM) yielded a cell count of 15.7%.
